Measurements from PubChem BioAssay AID1476 (National Center for Advancing Translational Sciences (NCATS), 2009).
In all, about 200,000 compounds went through this assay and about 4,500 (2.2%) were called active. This list was built around the results that the source calls inconclusive (neither active nor inactive); the mix of calls is not that of the screen. Calls follow the shape of the dose curve; as a rule, active = well fitted inhibition curve with a large enough effect; inconclusive = small, poorly fitted or top-dose-only effect, or effect the other way; inactive = flat fitted curve, though single readings scatter. Potencies of inconclusive entries are doubtful fits and often do not repeat.

molecular target: Cruzipain (Trypanosoma cruzi) (UniProt P25779); experiment: qHTS Assay for Promiscuous and Specific Inhibitors of Cruzain (without detergent); details: purified cruzain, Z-FR-AMC fluorescence, no detergent; also: nearly all actives have a fitted effect of over 40% in size;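 as to max response, negative = inhibition: plate controls were enzyme without inhibitor for no effect and buffer without enzyme for full effect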
Chain of UniProt P25779 (P25779 whole entry, looked up): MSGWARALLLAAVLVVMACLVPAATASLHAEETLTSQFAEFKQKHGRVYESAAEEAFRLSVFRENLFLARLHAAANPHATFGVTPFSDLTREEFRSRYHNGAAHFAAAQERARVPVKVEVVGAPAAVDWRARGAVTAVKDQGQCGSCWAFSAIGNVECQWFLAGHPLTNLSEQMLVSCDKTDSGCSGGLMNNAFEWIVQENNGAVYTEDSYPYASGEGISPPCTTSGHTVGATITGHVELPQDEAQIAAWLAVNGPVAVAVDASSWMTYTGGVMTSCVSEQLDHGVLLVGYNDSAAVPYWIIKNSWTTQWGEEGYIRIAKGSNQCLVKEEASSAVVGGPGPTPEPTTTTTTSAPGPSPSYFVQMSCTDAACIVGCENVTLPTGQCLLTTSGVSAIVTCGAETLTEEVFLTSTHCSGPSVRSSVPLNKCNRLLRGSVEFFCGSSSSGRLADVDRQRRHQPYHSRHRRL
Procedure, shortened: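 Purified cruzain at 1.5 nM, pre-incubated 15 min with compound at room temperature in 100 mM sodium acetate pH 5.5, 5 mM DTT, 0.00005% Triton X-100. Reaction started with 2 uM Z-FR-AMC; AMC fluorescence increase over 60 s gives rate.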
Potency is read from the fitted curve at half-maximal effect; tags tell the direction and shape of the fitted curve.

Compound | max response, negative = inhibition | Potency
Cc1nnc(NCc2ccc(F)cc2)c2c1nnn2Cc1ccccc1Cl | inactive: 13.2% | –
Cc1cccc(C(=O)Nc2nnc(-c3ccc(C(C)(C)C)cc3)s2)c1 | – | inconclusive: 39.8 µM [inhibitor, single point]
Cc1ccc(C(c2sc3nc(C)nn3c2O)N2CCN(C(=O)c3ccco3)CC2)cc1 (stereo unspecified) | – | inconclusive: 31.6 µM [activator, single point]
COc1ccc(Cl)cc1S(=O)(=O)N1CCCC1 | – | inconclusive: 31.6 µM [inhibitor, single point]
CCN1c2ccccc2-c2nc(SCC(=O)Nc3cc(F)ccc3F)ncc2S1(=O)=O | inactive: -0.666% | –
Brc1ccc(-n2cc(-c3ccccc3)c3c(NN4CCOCC4)ncnc32)cc1 | – | inconclusive: 31.6 µM [activator, single point]
Cc1[nH]c2ccccc2c1/C=C/c1nc2ccccc2c(=O)n1-c1cccc([N+](=O)[O-])c1 | – | inconclusive: 3.16 µM [inhibitor, partial curve]
COc1ccc(/C=C/C(=O)c2cc(F)ccc2OC(=O)c2ccc(OC)c(OC)c2)cc1OC | – | inconclusive: 12.6 µM [activator, partial curve]
O=C(CSc1ncn[nH]1)Nc1c(F)cc(F)cc1Br | inactive: 0.489% | –
Cc1ccc(-c2nnc(Nc3cccc(Br)c3)c3ccccc23)cc1S(=O)(=O)NCC1CCCO1 (stereo unspecified) | inactive: -20.7% | –
COC(=O)c1ccccc1NC(=O)CSc1nnc2cc(C)c3cc(C)cc(C)c3n12 | inactive: 1.42% | –
O=C(c1ccc2c(c1)N(Cc1ccc(Cl)cc1)C(=O)c1ccccc1S2(=O)=O)N1CCc2ccccc21 | – | inconclusive: 6.31 µM [inhibitor, single point]
CCOC(=O)c1ccccc1NC(=O)C1COc2ccccc2O1 (stereo unspecified) | – | inconclusive: 39.8 µM [inhibitor, single point]
CCOc1ccc(N2C(=O)C3C(C2=O)C3(c2ccccc2)c2ccccc2)cc1 (stereo unspecified) | inactive: -9.94% | –
COc1ccccc1C(=O)N1C(CC(=O)Nc2cc(Cl)ccc2C)C(=O)NC2CCCCC21 (stereo unspecified) | – | inconclusive: 39.8 µM [activator, single point]
COc1ccc(-c2nn(CC(=O)Nc3ccc(Cl)c(Cl)c3)c(=O)c3ccccc23)cc1 | – | active: 7.94 µM
O=c1cc(-c2ccc([N+](=O)[O-])cc2)nc2cc(-c3ccc(F)cc3)[nH]n12 | – | inconclusive: 39.8 µM [inhibitor, single point]
CCSc1nnc(NC(=O)/C=C/c2ccc3c(c2)OCO3)s1 | – | active: 15.8 µM
CC(C)(Oc1ccc(-c2cccc3ccccc23)cc1)C(=O)O | inactive: 0.398% | –
Cc1cc(=O)n(CC(=O)NC(C)c2ccccc2)c2c1c(C)nn2C (stereo unspecified) | inactive: -4.74% | –
Cc1ccc(NC(=O)/C(=C/C=C/c2ccccc2)NC(=O)c2ccccc2)cc1 | – | inconclusive: 25.1 µM [inhibitor, single point]
Cc1ccc(C(C)C)c2oc(=O)cc(-c3ccc(-c4ccc(C(F)(F)F)cc4)cc3)c12 | – | inconclusive: 3.55 µM [inhibitor, full curve, poor fit]

Compound | max response, negative = inhibition | Potency
Cc1cccc(C(=O)NNC(=O)c2ccc(-c3ccccc3)cc2)c1 | – | inconclusive: 31.6 µM [inhibitor, single point]
CC(=O)n1cc(/C=N/NC(=O)c2sc(C)nc2C)c2ccccc21 | – | inconclusive: 31.6 µM [activator, single point]
CCOCC(=O)Nc1cc(-c2cn3cccnc3n2)ccc1C | – | inconclusive: 39.8 µM [inhibitor, single point]
COc1ccc(-c2noc(CN(C)S(=O)(=O)c3ccc(Cl)cc3)n2)cc1OC | – | inconclusive: 20 µM [activator, single point]
O=C(N/N=C\c1ccc(CNS(=O)(=O)c2ccccc2)o1)C(=O)Nc1ccc(F)cc1 | – | inconclusive: 39.8 µM [inhibitor, single point]
Cc1cccc(CN2C(=O)c3ccccc3Sc3ccc(C(=O)NCc4cccs4)cc32)c1 | – | inconclusive: 39.8 µM [inhibitor, single point]
[ClH+][Cu][ClH+].[Cu].[OH2+]c1ccc2ccccc2c1CN1CCCCC1.[OH2+]c1ccc2ccccc2c1CN1CCCCC1 | inactive: -4.96% | –
CCOC(=O)N1CCc2c(sc3c2c(=O)n(-c2ccc(F)cc2)c(=O)n3CC(=O)c2ccccc2)C1 | inactive: -4.32% | –
Fc1ccc2[nH]c3c(NCCN4CCOCC4)ncnc3c2c1 | – | active: 20 µM
C=CCOc1ccc2c(c1)C(=NO)c1cc(OCC=C)ccc1-2 | – | inconclusive: 31.6 µM [inhibitor, single point]
Cc1ccc(-c2nnn(CC(=O)N(c3ccccc3F)C(C(=O)NC3CCCC3)c3ccco3)n2)o1 (stereo unspecified) | inactive: 2.89% | –
Cc1c(C(=O)Nc2ccc(C(C)C)cc2)sc2nc[nH]c(=O)c12 | – | inconclusive: 39.8 µM [activator, single point]
N#Cc1cccc(NC(=O)N2CC3(CCN(C(=O)c4cc(C(F)(F)F)cc(C(F)(F)F)c4)CC3)C2)c1 | – | inconclusive: 31.6 µM [activator, single point]
Cc1c(O)c(CN2CCCC2)cc2c3c(c(=O)oc12)CCC3 | – | inconclusive: 31.6 µM [activator, single point]
Cc1ccc(/C=N/NC(=O)C2=NNC(c3ccccc3)(c3ccccc3)C2)c(O)c1 | – | active: 20 µM
COc1ccc(/C=C/C(=O)NC2CCCCCCC2)cc1S(=O)(=O)N1CCOCC1 | – | inconclusive: 39.8 µM [activator, single point]
Cc1ccccc1C(=O)N1CCN(CCc2ccccn2)CC1 | inactive: -5.47% | –
COc1ccc(CNC(=O)c2ccc3c(c2)CCN3S(=O)(=O)c2ccc(C)cc2)cc1 | inactive: -25.9% | –
C=CCC(C)(NCc1ccccc1)c1ccco1 (stereo unspecified) | inactive: 6.28% | –
COc1ccc(CNC(=O)CSc2ncc(S(=O)(=O)c3ccc(C)c(Cl)c3)c(=O)[nH]2)cc1 | – | inconclusive: 31.6 µM [activator, single point]
Cc1ccc(NC(=O)/C(=C/c2cccc([N+](=O)[O-])c2)NC(=O)C2CCCCC2)c(C)c1 | – | inconclusive: 6.31 µM [inhibitor, full curve, poor fit]
Cc1ccc(NC(=O)C2CCCN2S(=O)(=O)c2cccc3nsnc23)cc1Cl (stereo unspecified) | inactive: -0.636% | –

Compound | max response, negative = inhibition | Potency
O=[N+]([O-])c1ccc(N2CCCC2)cc1NC(c1ccccc1)c1ccccc1 | – | active: 10 µM
Cc1cc(NS(=O)(=O)c2ccc(NC(=O)c3cc(-c4cccnc4)nc4ccc(Cl)cc34)cc2)no1 | – | inconclusive: 20 µM [activator, partial curve]
OC[C@@H]1CCC[C@H](n2cnc3c(=S)nc[nH]c32)O1 | inactive: -1.39% | –
Cn1c(=N)c(S(=O)(=O)c2ccc(F)cc2)cc2c(=O)n3ccccc3nc21 | – | inconclusive: 25.1 µM [inhibitor, single point]
CC1CCN(S(=O)(=O)c2ccc3c(c2)N(CC(=O)NC(C)C)C(=O)CO3)CC1 | inactive: -1.75% | –
CC(C)c1ccc(NC(=O)CSc2ncccc2C(=O)Oc2cccc([N+](=O)[O-])c2)cc1 | – | active: 15.8 µM
O=C(Cn1c(N2CCN(c3ccccc3)CC2)nc2ccccc21)c1ccccc1 | – | inconclusive: 20 µM [inhibitor, partial curve, poor fit]
COc1ccc(CCNC(=O)CSc2nnnn2-c2cccc(C(C)=O)c2)cc1OC | inactive: -5.92% | –
CO/N=C1\CN(c2nc3c(cc2F)c(=O)c(C(=O)O)cn3C2CC2)CC1CN (stereo unspecified) | – | inconclusive: 31.6 µM [activator, single point]
Cc1ccccc1-c1noc(-c2cccnc2N(C)Cc2ccc(Cl)cc2)n1 | inactive: -0.893% | –
Cc1cccc2cc(C(c3nnnn3Cc3ccc4c(c3)OCO4)N3CCCC3)c(=O)[nH]c12 (stereo unspecified) | – | inconclusive: 31.6 µM [inhibitor, single point]
CCOC(=O)c1oc2c(C)c(O)ccc2c(=O)c1-c1nncn1-c1ccccc1 | inactive: -1.72% | –
CN(C)c1ccc(CNS(=O)(=O)c2ccc3[nH]c4c(c3c2)CCCCC4)cc1 | – | inconclusive: 31.6 µM [inhibitor, single point]
Cc1cccc(C)c1Nc1nnc(SCc2cc([N+](=O)[O-])cc3c2OCOC3)s1 | – | inconclusive: 31.6 µM [inhibitor, single point]
CN(C)C=C1C(=O)N(C2CCCCC2)C(=O)N(C2CCCCC2)C1=O | – | inconclusive: 31.6 µM [activator, single point]
Nc1nc(SCC(=O)NCc2ccccc2Cl)[nH]c(=O)c1NC(=O)c1ccccc1F | – | inconclusive: 39.8 µM [inhibitor, single point]
Cc1cccc(NC2=CC(c3cccc(Br)c3)N(c3cccc(C)c3)C2=O)c1 (stereo unspecified) | – | inconclusive: 25.1 µM [inhibitor, single point]
CC1=C(C(=O)N2CCN(c3cccc(C)c3C)CC2)C2(CCCCC2)OC1=O | inactive: 8.86% | –
Cc1cc(O)c(C(c2ccccc2)N2CCN(C)CC2)c(=O)n1Cc1ccco1 (stereo unspecified) | – | inconclusive: 39.8 µM [inhibitor, single point]
C=Cc1ccc(CN2C(=O)c3ccccc3Sc3ccc(C(=O)OCc4ccco4)cc32)cc1 | – | active: 12.6 µM
NC(=O)CSc1nnc([C@@H](N)Cc2c[nH]c3ccccc23)o1 | – | active: 10 µM
O=C(Cn1c(=O)nc(-c2ccccc2)c2ccccc21)NCc1ccc(F)cc1 | inactive: -6.03% | –
